Measured values taken from PubChem BioAssay AID686978 (National Center for Advancing Translational Sciences (NCATS), 2013).
“And” between values parts separate entries of the source, which are not always exact repeats. Identical values can stand only once. Out of some 420,000 compounds screened, about 64,000 (15%) were called active. Inconclusive means that the source gave no clear call. Such entries were picked first, then a sample of the others. Calls come from the whole dose curve; as a rule, active = well fitted inhibition curve with a large enough effect; inconclusive = small, poorly fitted or top-dose-only effect; inactive = flat fitted curve, though single readings scatter. Potencies of inconclusive entries are doubtful fits and often do not repeat.

Test: qHTS for Inhibitors of human tyrosyl-DNA phosphodiesterase 1 (TDP1): qHTS in cells in absence of CPT; note: nearly all actives have a fitted effect of over 55% in size
Conditions: DT40 Tdp1-/- hTDP1 cells, no CPT, ATP luminescence, 48 h; activity change, negative = growth inhibition: at 46.2 µM (top of the series) unless noted
Procedure, shortened: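 A cellular qHTS used chicken DT40 cells lacking endogenous Tdp1 but carrying stably transfected human TDP1. Compounds were applied without camptothecin, and cell growth kinetics were judged by ATP-dependent luminescence after ≥48 hr.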
% is set by controls: 0 for no effect and ±100 for the full control effect; potency is the fitted concentration of half-maximal effect; tags give direction and shape of the fitted curve.

Question: For `COc1ccc(CNC(=O)C2CCCN(C(=O)Nc3ccc(OC)cc3)C2)cc1` (stereo not drawn), which Potency is on record?
Answer: inactive

Question: With `COc1cc(Cl)ccc1OC1(C)CCN(Cc2c(F)cccc2F)C1` (stereo not drawn) as the molecule, how does the Potency read?
Answer: inconclusive: 23.1 µM [inhibitor, single point]

Question: For `Cc1cc(C)n2c(NC3CCCCC3)c(-c3ccccn3)nc2n1`, which Potency is on record?
Answer: active: 23.1 µM

Question: Which Potency does the source give for `Cc1cc(N2CCC(C)CC2)n2nc(C)c(-c3ccccc3)c2n1` here?
Answer: inconclusive: 29.1 µM [inhibitor, single point]

Question: With `CCOc1ccc(C2C(C#N)=C(N)N(c3sc4c(c3C#N)CCCC4)C3=C2C(=O)CCC3)cc1` (stereo not drawn) as the molecule, how does the Potency read?
Answer: inconclusive: 29.1 µM [inhibitor, single point]

Question: With `Nc1cc(Cc2ccccc2)ccc1O` as the molecule, how does the Potency read?
Answer: inconclusive: 29.1 µM [inhibitor, single point]

Question: For `c1ccc2[nH]c(CSc3ncnc4c3oc3ccccc34)nc2c1`, which Potency is on record?
Answer: inconclusive: 11.6 µM [inhibitor, partial curve]

Question: With `CC(C)C(=O)Nc1ccccc1N1CCN(C(=O)c2ccccc2)CC1` as the molecule, how does the activity change, negative = growth inhibition read?
Answer: inconclusive: -30.9% [inhibitor]

Question: For `CCOC(=O)/C(=N\Nc1ccccc1Cl)N1CCN(Cc2ccccc2)CC1`, which Potency is on record?
Answer: inconclusive: 29.1 µM [inhibitor, single point]

Question: With `CCOC(=O)c1cc(-c2ccc(C)cc2)n(CCC(=O)N2CCN(c3ccccn3)CC2)c1C` as the molecule, how does the Potency read?
Answer: active: 23.1 µM

Question: With `O=C1CCCCN1CCCC(=O)N1CCCC(Nc2ccc(F)c(F)c2)C1` (stereo not drawn) as the molecule, how does the Potency read?
Answer: inactive

Question: Which Potency does the source give for `COc1cccc(C(=O)Nc2cc(-c3ccccc3)no2)c1` here?
Answer: inconclusive: 29.1 µM [inhibitor, single point]

Question: Which Potency does the source give for `COc1ccc(-c2nn(C)c(=O)[nH]2)cc1` here?
Answer: inactive

Question: With `Cc1c(-c2nc(N)nc(Nc3ccccc3)n2)oc2ccccc12` as the molecule, how does the Potency read?
Answer: active: 16.4 µM

Question: For `CCOC(=O)[C@H]1[C@H]2COc3ccc(Cl)cc3[C@@H]2N2C(=O)c3cc(Cl)ccc3NC(=O)[C@@]12C`, which Potency is on record?
Answer: inconclusive: 29.1 µM [inhibitor, single point]

Question: With `O=C(NN1CCOCC1)c1cccc2ccccc12` as the molecule, how does the Potency read?
Answer: inconclusive: 29.1 µM [inhibitor, single point]

Question: Which Potency does the source give for `CC(Oc1ccccc1)C(=O)Nc1oc(-c2ccco2)c(-c2ccco2)c1C#N` (stereo not drawn) here?
Answer: inactive

Question: With `Cc1cccc(-n2cnc(C(=O)NNC(=S)Nc3ccc(Cl)cc3)c2)n1` as the molecule, how does the Potency read?
Answer: active: 11.6 µM

Question: For `COc1ccc(/C=C2\SC(=O)N(CCC(=O)NCCCn3ccnc3)C2=O)cc1`, which Potency is on record?
Answer: inconclusive: 29.1 µM [inhibitor, single point]

Question: For `COc1ccc(C(=O)N2CC(=O)Nc3ccc(F)cc3C2c2ccc(F)cc2)c(OC)c1` (stereo not drawn), which Potency is on record?
Answer: inconclusive: 25.9 µM [inhibitor, single point]

Question: Which Potency does the source give for `CCOc1ccc(CCNC(=O)CS(=O)Cc2nc(-c3ccc(C)cc3)oc2C)cc1` (stereo not drawn) here?
Answer: inconclusive: 29.1 µM [inhibitor, single point]

Question: With `OC(c1ccccc1)(c1ccccc1)C1CCN(CCCOc2ccccc2)CC1` as the molecule, how does the Potency read?
Answer: active: 16.4 µM

Question: Which Potency does the source give for `CCCc1nc(C)c2c(=O)[nH]c(-c3cc(S(=O)(=O)N4CCN(CC)CC4)ccc3OCC)nn12` here?
Answer: inactive and inconclusive: 29.9 µM [inhibitor, single point]

Question: Which Potency does the source give for `CCOc1ccccc1NC(=O)Cn1cnc2onc(-c3ccc(F)cc3)c2c1=O` here?
Answer: inconclusive: 23.1 µM [inhibitor, partial curve]

Question: With `N#Cc1ccccc1-c1ccc2ncnc(NC3CC3)c2c1` as the molecule, how does the Potency read?
Answer: inconclusive: 29.1 µM [inhibitor, single point]

Question: Which Potency does the source give for `COC(=O)C1=CN(c2cccc(C)c2)C=C(C(=O)OC)C1c1cc(OC)c(O)c([N+](=O)[O-])c1` here?
Answer: inconclusive: 18.4 µM [inhibitor, single point]

Question: For `COc1ccccc1Nc1nc(C2(C)CCC(=O)O2)cs1` (stereo not drawn), which Potency is on record?
Answer: inactive

Question: For `O=C(CSc1cn(CCNC(=O)c2c(F)cccc2F)c2ccccc12)Nc1ccc2c(c1)OCCO2`, which Potency is on record?
Answer: inconclusive: 6.51 µM [inhibitor, partial curve]

Question: For `CC(Oc1ccccc1)C(=O)N[C@@H]1C(=O)N2[C@@H]1SC(C)(C)[C@@H]2C(=O)OCc1ccccc1` (stereo partly drawn), which Potency is on record?
Answer: inconclusive: 35.5 µM [inhibitor, single point]

Question: For `CCCC(C(=O)NC(C)(C)C)N(Cc1ccccc1Cl)C(=O)c1snc(C(N)=O)c1N` (stereo not drawn), which Potency is on record?
Answer: inconclusive: 29.1 µM [inhibitor, single point]

Question: With `CCOC(=O)c1sc(NC(=O)CSC(=S)N2CCN(C)CC2)nc1C` as the molecule, how does the Potency read?
Answer: active: 18.4 µM

Question: With `CCC1CCCCN1C(=O)COC(=O)CN(C)S(=O)(=O)c1ccc(NC(C)=O)cc1` (stereo not drawn) as the molecule, how does the Potency read?
Answer: inactive

Question: For `CC(=O)Cc1nsc(NC(=O)c2ccc(-c3ccc(Cl)cc3Cl)o2)n1`, which Potency is on record?
Answer: inconclusive: 13 µM [inhibitor, single point]

Question: With `O=c1cc(NCc2ccco2)c2ccccc2o1` as the molecule, how does the Potency read?
Answer: inactive

Question: Which Potency does the source give for `CC(C)CC(NS(=O)(=O)c1ccc2c(c1)oc(=O)n2C)C(=O)NCCc1ccc(Cl)cc1` (stereo not drawn) here?
Answer: inactive

Question: For `COc1ccccc1-c1cnc(C(O)c2cccc(F)c2)[nH]1` (stereo not drawn), which Potency is on record?
Answer: inactive

Question: Which Potency does the source give for `CCC(C)C(CO)NCCCn1ccc(NC(=O)OCc2ccccc2)nc1=O` (stereo not drawn) here?
Answer: inactive

Question: Which Potency does the source give for `CC(C)=CCC[C@H](C)C[C@@H]1Cc2[nH][nH]c(=O)c2[C@H](c2ccc(Cl)cc2)O1` here?
Answer: inconclusive: 29.1 µM [inhibitor, single point]

Question: With `CN(CCCN1CCOCC1)C(=O)c1ccc2nc(Cc3cccc(Cl)c3)oc2c1` as the molecule, how does the Potency read?
Answer: inconclusive: 25.9 µM [inhibitor, single point]

Question: Which Potency does the source give for `Cc1cccc(NC(=O)CSc2nnc3ccc(-c4cccnc4)nn23)c1` here?
Answer: inconclusive: 20.6 µM [inhibitor, single point]

Question: Which Potency does the source give for `CCN(C(=O)COC(=O)/C=C/c1ccco1)c1c(N)n(Cc2ccccc2)c(=O)[nH]c1=O` here?
Answer: inactive

Question: For `Cc1cc(C(=O)COC(=O)c2csc3c2CCCC3)c(C)n1C`, which activity change, negative = growth inhibition is on record?
Answer: inconclusive: -37% [inhibitor]

Question: With `O=C(Nc1cnn(Cc2c(Cl)cccc2Cl)c1)C(c1ccccc1)c1ccccc1` as the molecule, how does the Potency read?
Answer: active: 16.4 µM

Question: With `Cc1ccc(C(=O)N/N=C/c2ccc3c(c2)OCO3)o1` as the molecule, how does the Potency read?
Answer: inactive

Question: Which Potency does the source give for `Cc1cc(CN2CCCC(N3CCc4ccccc4C3)C2)cc(C)c1O` (stereo not drawn) here?
Answer: inconclusive: 18.4 µM [inhibitor, single point]

Question: Which Potency does the source give for `O=C(NCc1cccnc1)C1CCN(Cc2cc3ccccc3n2Cc2cccc(Cl)c2)CC1` here?
Answer: active: 18.4 µM

Question: Which Potency does the source give for `COc1ccc(/C(C)=N/NC(=O)c2ccc(CSc3cccc4cccnc34)cc2)cc1OC` here?
Answer: active: 15.8 µM

Question: With `C/C(=C\c1ccco1)C1C(C#N)=C(N)Oc2n[nH]c(-c3ccccc3)c21` (stereo not drawn) as the molecule, how does the Potency read?
Answer: inactive

Question: Which Potency does the source give for `COc1ccccc1CO/N=C/c1cccn1-c1nccc(N(C)C)c1C#N` here?
Answer: inconclusive: 25.9 µM [inhibitor, single point]

Question: With `Cc1cc2nc(C3CCCN(C(=S)Nc4ccccc4)C3)[nH]c2cc1C` (stereo not drawn) as the molecule, how does the Potency read?
Answer: inconclusive: 16.4 µM [inhibitor, single point]

Question: Which Potency does the source give for `COc1ccc(N/C(N)=N/c2nc(C)cc(C)n2)c(OC)c1` here?
Answer: active: 11.6 µM

Question: With `CC(=O)N(C(C)=O)c1c(C#N)c(C)n(-c2ccccc2)c1C(=O)c1ccccc1` as the molecule, how does the Potency read?
Answer: inconclusive: 23.1 µM [inhibitor, single point]

Question: With `CCC(=O)N1CN(S(=O)(=O)c2ccc(C)cc2)CC1C` (stereo not drawn) as the molecule, how does the Potency read?
Answer: inactive

Question: Which activity change, negative = growth inhibition does the source give for `CCOc1ccc(OCC)c2sc(C)nc12` here?
Answer: inconclusive: -30.2% [inhibitor]

Question: For `COc1ccc(C(=O)CNC2=NCCC2)cc1`, which Potency is on record?
Answer: inactive

Question: Which Potency does the source give for `CCOc1ccc(-c2nc(-c3cccnc3)no2)cc1` here?
Answer: inconclusive: 8.2 µM [inhibitor, partial curve]

Question: For `Cc1cc(=O)[nH]c(SCC(=O)/C=C2\N(C)c3ccccc3C2(C)C)n1`, which Potency is on record?
Answer: active: 9.2 µM

Question: With `O=C(CS(=O)(=O)c1ccc(Cl)cc1)N1CCN(c2ccccc2)CC1` as the molecule, how does the Potency read?
Answer: inactive

Question: Which Potency does the source give for `C=CCC(C(=O)NC(C)c1ccccc1)C(=O)NC(C)c1ccccc1` (stereo not drawn) here?
Answer: inactive

Question: Which Potency does the source give for `O=C(Nc1ccc(Cl)cc1)Nc1nnc(/C=C/c2ccccc2)s1` here?
Answer: inconclusive: 3.26 µM [inhibitor, full curve]

Question: With `CCCNC(=O)c1onc(CSc2ccc(F)c(F)c2)c1C(=O)NCCC` as the molecule, how does the Potency read?
Answer: inconclusive: 25.9 µM [inhibitor, partial curve, poor fit]

Question: For `Cc1ccc(S(=O)(=O)NCC(=O)N2CCN(c3ccccn3)CC2)cc1`, which Potency is on record?
Answer: inactive

Question: With `COC(=O)C[C@@H]1C=C[C@@H](NC(C)=O)[C@@H](CO)O1` as the molecule, how does the Potency read?
Answer: inactive

Question: Which Potency does the source give for `Cc1ccc(-n2c(SCC(=O)NCC3CCCO3)nc3ccccc3c2=O)cc1C` (stereo not drawn) here?
Answer: inconclusive: 5.8 µM [inhibitor, partial curve]

Question: For `CN(CC(=O)Nc1c(Cl)cccc1Cl)C(=O)c1sccc1-c1ccccc1`, which Potency is on record?
Answer: inconclusive: 32.6 µM [inhibitor, single point]

Question: With `Cc1ccc(C(=O)NCCc2ccc(S(N)(=O)=O)cc2)o1` as the molecule, how does the Potency read?
Answer: inactive

Question: With `CC(C)n1c(=O)[nH]c2ccccc21` as the molecule, how does the Potency read?
Answer: inactive

Question: With `COc1cc(-c2nnc(COC(=O)c3cccn3C)o2)cc(OC)c1OC` as the molecule, how does the Potency read?
Answer: inconclusive: 29.1 µM [inhibitor, single point]

Question: Which Potency does the source give for `O=C(NCc1cccs1)c1ccc(CS(=O)Cc2ccc(Cl)cc2)o1` (stereo not drawn) here?
Answer: inconclusive: 29.1 µM [inhibitor, single point]

Question: With `Cc1c(CN2CC[C@@H](N3CCN(c4ccccn4)CC3)[C@H](O)C2)[nH]c2ccc(F)cc12` as the molecule, how does the Potency read?
Answer: inconclusive: 29.1 µM [inhibitor, single point]

Question: With `O=C(NCCc1csc(-c2cccc(F)c2)n1)c1cccs1` as the molecule, how does the Potency read?
Answer: active: 16.4 µM

Question: Which Potency does the source give for `C(=C\c1ccccc1)/CN1CCN(C(c2cc3ccccc3o2)c2nnnn2C2CCCCC2)CC1` (stereo not drawn) here?
Answer: inconclusive: 25.9 µM [inhibitor, single point]

Question: For `CCOC(=O)C1(Cc2cccc(OC)c2)CCCN(C(=O)c2ccccc2C)C1` (stereo not drawn), which Potency is on record?
Answer: active: 16.4 µM
